The full ranking holds about 33,000 sequences; the median of “E-score (-0.5 to 0.5)” is about -0.04, and the highest 2% start at about 0.36. This is one part of the list.
biological target: T1, Hmlalpha2 (UniProt P0CY09); assay: PBM E-score (8-mer binding enrichment) (E-score (-0.5 to 0.5)); higher = stronger / more preferred TF binding; most listed sequences are background and not binding sites; conditions: protein concentration: 200 nM; construct: GST-full length
T1 sequence: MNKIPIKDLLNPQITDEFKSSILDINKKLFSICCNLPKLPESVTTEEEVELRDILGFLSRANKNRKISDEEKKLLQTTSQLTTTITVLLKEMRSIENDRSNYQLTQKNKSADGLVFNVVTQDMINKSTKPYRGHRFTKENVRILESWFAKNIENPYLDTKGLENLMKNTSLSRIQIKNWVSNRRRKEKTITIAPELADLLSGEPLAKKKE
In short: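 Using PURExpress in vitro transcription/translation, GST-tagged yeast transcription factors were made in full-length or DNA-binding-domain form. These were applied at about 100-200 nM to double-stranded universal all-10-mer Agilent arrays, and bound protein was detected with fluorescent anti-GST. Scans were normalised with masliner before the Universal PBM Analysis Suite assigned E-scores to ungapped eight-base words pooled with their reverse complements.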

Sequence | PBM E-score
AGCCCTAA | 0.00565
ATGGCATA | -0.0529
AGTCTCGG | -0.261
AGCCCATG | 0.00706
CCTAATCA | 0.0766
AGATCCCC | -0.109
AGGATAGA | -0.0436
CTTATATC | 0.0225
CTCTTAAA | 0.0249
ATTACTTC | 0.16
CCTTTGGA | -0.243
ATGTCCCC | -0.11
AGAAGAAT | -0.0367
AGTCCCCC | -0.4
AAGGCTCT | -0.237
CACTCACC | -0.256
AGATACAG | -0.0238
GATCTCGA | -0.0622
ACTGGCAG | -0.0934
AGGCCTTC | -0.156
CGACCTTC | -0.315
ACCTGAGT | 0.0645
ATGGGTCG | -0.3
GACATGCA | 0.294
GTCGCATA | 0.146

Sequence | PBM E-score
CGACAGCA | -0.0958
GCATGTGA | 0.263
AATTCCAA | 0.118
CTCATACA | 0.0274
CGGCGTAA | 0.214
CTTCCAGA | -0.18
CCTCACTA | -0.315
AAACAGAA | 0.00626
ATCGGCCC | -0.277
TATTAGGA | 0.196
CCTTTTGC | -0.282
ACTTTAAG | -0.0195
ACGCCTGC | -0.0664
GCATCCGC | -0.114
AGGATCCC | -0.174
GCTCCTAA | -0.0974
GGGATAAA | 0.136
ACACGCAG | 0.313
GCTCAGAA | -0.0102
GTCGGAAC | -0.00797
GCAACTGA | -0.00457
CCCTCGCA | -0.306
GGTCAAAC | 0.00702
ATAGTGCC | -0.103
GGAGATAA | -0.0441

Sequence | PBM E-score
CCCTTGTC | -0.0241
CCGCACGC | -0.18
ACCTTACA | 0.183
TAAGGCTA | -0.106
AAGAGATT | 0.00461
ACGTAAAA | 0.388
GCGACGAA | -0.108
CCTTTAAA | 0.0839
AAGCAATG | 0.16
AACACATC | 0.291
GGTTACTA | 0.00432
ATCCGACG | 0.0174
AGAGCGCT | -0.127
CCGTTCGC | -0.172
AACTGACG | -0.167
CACATAAC | 0.242
CCGCAGCC | -0.332
AGTTGAAG | -0.0465
AAGCAACC | -0.0604
ACACCCTA | 0.097
ATCGGAAT | 0.099
ACATAAGG | 0.331
CCTCTGGA | -0.146
GCCTGTCA | -0.0584
AGGACGAT | 0.0737

Sequence | PBM E-score
GGACGGTA | -0.157
CACGCGAC | 0.128
AGGAACCG | -0.226
CGCGCATA | 0.0684
GTGCGCCA | -0.128
GTAAAAAA | 0.286
TGGCTAAA | 0.0228
CTCTGCAA | -0.0611
ATTCCTAA | 0.0708
GCGACTCC | -0.283
TGTCATAA | 0.268
GATCAAAA | -0.0962
CGACGTTC | -0.115
AAACGAAG | 0.0335
AGACAGAT | 0.00343
AGTCGATA | -0.343
AGATGGGA | -0.23
AGCAATGC | -0.0707
ATAAGGCC | -0.205
AACTCTTG | -0.084
AGTCTGGG | -0.284
AACACGGC | 0.359
ACCGGTTG | -0.0706
CGTCTCTC | -0.145
ACTCTTCA | 0.073

Sequence | PBM E-score
ACCAGTCT | -0.0937
CACTAATG | -0.198
ACGTCTGG | 0.0877
AAGTATAC | 0.262
GTGACGCA | -0.0724
ACTTGAAC | 0.133
ACTCCCCC | -0.367
ATTATGTA | 0.415
ATCTTAGA | -0.0517
CATAATGG | -0.154
GTCGAATA | -0.123
GATATGAA | 0.0756
ATACGCTA | 0.103
AGACGGAG | -0.0994
CCGTTACC | -0.16
CACAGCGA | 0.19
CGCAGATA | -0.0162
ATCTCGAC | -0.0114
CAGGAGGA | -0.136
GAATGGCA | -0.0628
ACGAGCGA | 0.155
GACTACAA | 0.0893
TAACGAAA | 0.224
AGGCAGTA | -0.0689
GGCAACAC | 0.0517

Sequence | PBM E-score
ACAAAAAC | 0.17
GAACATAC | 0.298
TCCGTACA | 0.148
GTATCTAA | 0.171
ATAATCGG | 0.105
ATCTGATG | -0.205
ATACCATC | 0.0769
CCTTGTTA | 0.371
GCGGAAAC | -0.266
AGTCGTTA | -0.0983
ACGGTGTA | 0.205
CGTCCCCC | -0.26
AAGAATAT | -0.124
GCGCACAA | 0.0921
CTAGTTGC | -0.0756
GAGCGATA | -0.144
ACAGTGCG | -0.0486
ACTCCTCG | 0.0131
AGACGTCT | -0.227
AAATGTGT | 0.308
TCAATGCA | 0.115
CTGATGTA | 0.233
AGCGAATA | 0.0664
AACTGTAC | 0.0563
GTGAATCA | 0.0678

Sequence | PBM E-score
GTTATACA | 0.4
CCGGCCCC | -0.383
ACCTTGAG | 0.0654
GAACAGTA | 0.141
GGGTAAAC | 0.0624
CAGAATGG | -0.205
ACCAGGGT | -0.202
AAATAGGG | -0.0284
GGCACTTA | -0.122
CAGTTAGG | -0.079
AGTCTTAG | -0.126
ATTGTACC | 0.0764
CTCACGGC | -0.214
CACAGCTG | -0.0556
GGTACCGA | -0.236
TACGCCGA | 0.0108
ACGCAGGG | 0.163
CGTTTAAG | -0.102
AAGCGGGG | -0.0783
AGCTCAGC | 0.00776
AACCATCG | 0.0926
CTCGGTGC | -0.0932
